Target: T1, human PD-L1 (human, UniProt Q9NZQ7)
T1 construct: whole, on cells; also called SCC152/PD-L1 cells
Assay: flow cytometry, SCC152/PD-L1 cells
Description: Binding affinity to CD28 was determined using primary human T cells which endogenously express CD28. Binding to PD-L1 was determined using SCC152 cells transduced with human PD-L1. Binding to CTLA-4 was measured using Chinese hamster ovary (CHO) cells stably transduced to express human CTLA-4.
For staining and analysis by flow cytometry, 75,000 human T cells, SCC152/PD-L1 cells, or CHO/CTLA-4 cells were plated in 96-well round-bottom plates. Cells were spun down and resuspended in staining buffer (PBS (phosphate buffered saline), 1% BSA (bovine serum albumin), 1 mM EDTA, and 0.1% sodium azide) for 20 minutes to block non-specific binding. Afterwards, cells were centrifuged, stain buffer aspirated, and then resuspended in 50 μL of a 1:5 serial dilution of each CD80-Fc candidate variant starting at 100 nM ending at 0.8 nM. Primary staining was performed on ice for 60 minutes, before washing cells in […] staining buffer three times. PE-conjugated anti-human Fc (Jackson ImmunoResearch, USA) was diluted 1:250 in 50 μL staining buffer and added to cells and incubated another 30 minutes at 4° C. Cells were washed two times in 150 μL stain buffer and then fixed in 2% formaldehyde/PBS for 5 minutes at room temperature. Samples were analyzed CytoFLEX LX flow cytometer (Beckman Coulter, USA). Median Fluorescence Intensity (MFI) was calculated for each cell type using the CytExpert software from Beckman Coulter.

T1 sequence (Q9NZQ7 19-290): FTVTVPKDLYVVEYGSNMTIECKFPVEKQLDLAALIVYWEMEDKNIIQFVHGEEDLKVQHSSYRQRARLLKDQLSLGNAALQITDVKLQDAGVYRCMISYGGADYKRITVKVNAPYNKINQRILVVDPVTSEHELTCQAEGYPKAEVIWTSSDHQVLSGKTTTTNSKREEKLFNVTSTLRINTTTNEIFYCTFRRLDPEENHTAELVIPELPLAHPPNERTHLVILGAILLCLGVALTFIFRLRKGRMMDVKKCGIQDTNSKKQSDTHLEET

Binder | Anti-Human Fc (MFI) at 0.8 nM [MFI] | Anti-Human Fc (MFI) at 4 nM [MFI] | Anti-Human Fc (MFI) at 20 nM [MFI] | Anti-Human Fc (MFI) at 100 nM [MFI] | fold change vs WT CD80 @20 nM [fold]
CD80_184-Fc (Fc fusion, also called V11Y, A26Q, M47L, A71G, Y87R) VIHVTKEVKEYATLSCGHNVSVEELQQTRIYWQKEKKMVLTMMSGDLNIWPEYKNRTIFDITNNLSIVILGLRPSDEGTYECVVLKREKDAFKREHLAEVTLSVKADGSGGGGS[omitted - human IgG4 Fc with S228P (EU numbers)] | 1590 | 3990 | 9400 | 11500 | 13.8
CD80_199-Fc (Fc fusion, also called E10G, H18Y) VIHVTKEVKGVATLSCGYNVSVEELAQTRIYWQKEKKMVLTMMSGDMNIWPEYKNRTIFDITNNLSIVILALRPSDEGTYECVVLKYEKDAFKREHLAEVTLSVKADGSGGGGS[omitted - human IgG4 Fc with S228P (EU numbers)] | – | 711 | 802 | 811 | 1.2
CD80_188-Fc (Fc fusion, also called E35D, V68L, L85E) VIHVTKEVKEVATLSCGHNVSVEELAQTRIYWQKDKKMVLTMMSGDMNIWPEYKNRTIFDITNNLSILILALRPSDEGTYECVVEKYEKDAFKREHLAEVTLSVKADGSGGGGS[omitted - human IgG4 Fc with S228P (EU numbers)] | 1240 | 1970 | 2800 | 3340 | 4.1
CD80_189-Fc (Fc fusion, also called E10G, V11W, M47V, L85E) VIHVTKEVKGWATLSCGHNVSVEELAQTRIYWQKEKKMVLTMMSGDVNIWPEYKNRTIFDITNNLSIVILALRPSDEGTYECVVEKYEKDAFKREHLAEVTLSVKADGSGGGGS[omitted - human IgG4 Fc with S228P (EU numbers)] | 806 | 854 | 1160 | 1950 | 1.7
CD80_190-Fc (Fc fusion, also called T28Y, M47L) VIHVTKEVKEVATLSCGHNVSVEELAQYRIYWQKEKKMVLTMMSGDLNIWPEYKNRTIFDITNNLSIVILALRPSDEGTYECVVLKYEKDAFKREHLAEVTLSVKADGSGGGGS[omitted - human IgG4 Fc with S228P (EU numbers)] | 589 | 597 | 561 | 659 | –
CD80_194-Fc (Fc fusion, also called V11Y, M42W, T62A) VIHVTKEVKEYATLSCGHNVSVEELAQTRIYWQKEKKMVLTWMSGDMNIWPEYKNRTIFDIANNLSIVILALRPSDEGTYECVVLKYEKDAFKREHLAEVTLSVKADGSGGGGS[omitted - human IgG4 Fc with S228P (EU numbers)] | 694 | 859 | 1480 | 2920 | 2.2
CD80_187-Fc (Fc fusion, also called V11Y, H18Y, E35G, L85Q) VIHVTKEVKEYATLSCGYNVSVEELAQTRIYWQKGKKMVLTMMSGDMNIWPEYKNRTIFDITNNLSIVILALRPSDEGTYECVVQKYEKDAFKREHLAEVTLSVKADGSGGGGS[omitted - human IgG4 Fc with S228P (EU numbers)] | 836 | 1070 | 1880 | 3360 | 2.7
CD80_200-Fc (Fc fusion, also called K9N, E10R, H18V, T28Y, A71G) VIHVTKEVNRVATLSCGVNVSVEELAQYRIYWQKEKKMVLTMMSGDMNIWPEYKNRTIFDITNNLSIVILGLRPSDEGTYECVVLKYEKDAFKREHLAEVTLSVKADGSGGGGS[omitted - human IgG4 Fc with S228P (EU numbers)] | 1280 | 1820 | 2180 | 2300 | 3.2
CD80_196-Fc (Fc fusion, also called V11Y, M42W, E52K, T62A, L85E) VIHVTKEVKEYATLSCGHNVSVEELAQTRIYWQKEKKMVLTWMSGDMNIWPKYKNRTIFDIANNLSIVILALRPSDEGTYECVVEKYEKDAFKREHLAEVTLSVKADGSGGGGS[omitted - human IgG4 Fc with S228P (EU numbers)] | 680 | 932 | 1690 | 2890 | 2.5
CD80_191-Fc (Fc fusion, also called V11Y, T28Y, M47L, V68L, L85E) VIHVTKEVKEYATLSCGHNVSVEELAQYRIYWQKEKKMVLTMMSGDLNIWPEYKNRTIFDITNNLSILILALRPSDEGTYECVVEKYEKDAFKREHLAEVTLSVKADGSGGGGS[omitted - human IgG4 Fc with S228P (EU numbers)] | 1940 | 5250 | 8680 | 9620 | 12.7
CD80_197-Fc (Fc fusion, also called V11Y, E35D, Y87Q, T101R) VIHVTKEVKEYATLSCGHNVSVEELAQTRIYWQKDKKMVLTMMSGDMNIWPEYKNRTIFDITNNLSIVILALRPSDEGTYECVVLKQEKDAFKREHLAEVRLSVKADGSGGGGS[omitted - human IgG4 Fc with S228P (EU numbers)] | 799 | 1270 | 3220 | 6100 | 4.7
CD80_193-Fc (Fc fusion, also called V11Y, M42W, T62A, L85E) VIHVTKEVKEYATLSCGHNVSVEELAQTRIYWQKEKKMVLTWMSGDMNIWPEYKNRTIFDIANNLSIVILALRPSDEGTYECVVEKYEKDAFKREHLAEVTLSVKADGSGGGGS[omitted - human IgG4 Fc with S228P (EU numbers)] | 710 | 981 | 1770 | 3150 | 2.6

The next lines start with the values.

Anti-Human Fc (MFI) at 0.8 nM [MFI] | Anti-Human Fc (MFI) at 4 nM [MFI] | Anti-Human Fc (MFI) at 20 nM [MFI] | Anti-Human Fc (MFI) at 100 nM [MFI] | fold change vs WT CD80 @20 nM [fold] | Binder
685 | 649 | 678 | 817 | 1 | CD80_205-Fc (Fc fusion, also called E10G, D46K, L85E) VIHVTKEVKGVATLSCGHNVSVEELAQTRIYWQKEKKMVLTMMSGKMNIWPEYKNRTIFDITNNLSIVILALRPSDEGTYECVVEKYEKDAFKREHLAEVTLSVKADGSGGGGS[omitted - human IgG4 Fc with S228P (EU numbers)]
672 | 806 | 860 | 936 | 1.3 | CD80_206-Fc (Fc fusion, also called E10G, H18T, Q27T, D46E, M47L) VIHVTKEVKGVATLSCGTNVSVEELATTRIYWQKEKKMVLTMMSGELNIWPEYKNRTIFDITNNLSIVILALRPSDEGTYECVVLKYEKDAFKREHLAEVTLSVKADGSGGGGS[omitted - human IgG4 Fc with S228P (EU numbers)]
1050 | 1910 | 4170 | 5030 | 6.1 | CD80_203-Fc (Fc fusion, also called K9N, E10A, V11W, H18F, T28H, M47L, T62E, R73D) VIHVTKEVNAWATLSCGFNVSVEELAQHRIYWQKEKKMVLTMMSGDLNIWPEYKNRTIFDIENNLSIVILALDPSDEGTYECVVLKYEKDAFKREHLAEVTLSVKADGSGGGGS[omitted - human IgG4 Fc with S228P (EU numbers)]
932 | 1100 | 1340 | 1450 | 2 | CD80_201-Fc (Fc fusion, also called E10G, H18Y, T28Y, M47W, T62S) VIHVTKEVKGVATLSCGYNVSVEELAQYRIYWQKEKKMVLTMMSGDWNIWPEYKNRTIFDISNNLSIVILALRPSDEGTYECVVLKYEKDAFKREHLAEVTLSVKADGSGGGGS[omitted - human IgG4 Fc with S228P (EU numbers)]
688 | 652 | 653 | 714 | 1 | CD80_208-Fc (Fc fusion, also called V11Y, E35G, M42G, F59S) VIHVTKEVKEYATLSCGHNVSVEELAQTRIYWQKGKKMVLTGMSGDMNIWPEYKNRTISDITNNLSIVILALRPSDEGTYECVVLKYEKDAFKREHLAEVTLSVKADGSGGGGS[omitted - human IgG4 Fc with S228P (EU numbers)]
657 | 623 | 652 | 793 | 1 | CD80_207-Fc (Fc fusion, also called E35D, V68T, T101K) VIHVTKEVKEVATLSCGHNVSVEELAQTRIYWQKDKKMVLTMMSGDMNIWPEYKNRTIFDITNNLSITILALRPSDEGTYECVVLKYEKDAFKREHLAEVKLSVKADGSGGGGS[omitted - human IgG4 Fc with S228P (EU numbers)]
